# Test results published in article PMC4336329 (PLoS ONE, 2015).
# Screen size: about 310,000 compounds; about 14,000 (4.5%) showed an effect of 50% or more. Effects have a minus sign here. This is one part of the list.
# Molecular target: human ether-à-go-go-related gene (hERG) potassium channel (human, UniProt Q12809)
# Assay: primary screen, population patch clamp on CHO cells stably expressing hERG
# 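Further: peak tail current of the secondary pulse compared with the same well before compound.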
# human ether-à-go-go-related gene (hERG) potassium channel, sequence (Q12809 whole entry, looked up): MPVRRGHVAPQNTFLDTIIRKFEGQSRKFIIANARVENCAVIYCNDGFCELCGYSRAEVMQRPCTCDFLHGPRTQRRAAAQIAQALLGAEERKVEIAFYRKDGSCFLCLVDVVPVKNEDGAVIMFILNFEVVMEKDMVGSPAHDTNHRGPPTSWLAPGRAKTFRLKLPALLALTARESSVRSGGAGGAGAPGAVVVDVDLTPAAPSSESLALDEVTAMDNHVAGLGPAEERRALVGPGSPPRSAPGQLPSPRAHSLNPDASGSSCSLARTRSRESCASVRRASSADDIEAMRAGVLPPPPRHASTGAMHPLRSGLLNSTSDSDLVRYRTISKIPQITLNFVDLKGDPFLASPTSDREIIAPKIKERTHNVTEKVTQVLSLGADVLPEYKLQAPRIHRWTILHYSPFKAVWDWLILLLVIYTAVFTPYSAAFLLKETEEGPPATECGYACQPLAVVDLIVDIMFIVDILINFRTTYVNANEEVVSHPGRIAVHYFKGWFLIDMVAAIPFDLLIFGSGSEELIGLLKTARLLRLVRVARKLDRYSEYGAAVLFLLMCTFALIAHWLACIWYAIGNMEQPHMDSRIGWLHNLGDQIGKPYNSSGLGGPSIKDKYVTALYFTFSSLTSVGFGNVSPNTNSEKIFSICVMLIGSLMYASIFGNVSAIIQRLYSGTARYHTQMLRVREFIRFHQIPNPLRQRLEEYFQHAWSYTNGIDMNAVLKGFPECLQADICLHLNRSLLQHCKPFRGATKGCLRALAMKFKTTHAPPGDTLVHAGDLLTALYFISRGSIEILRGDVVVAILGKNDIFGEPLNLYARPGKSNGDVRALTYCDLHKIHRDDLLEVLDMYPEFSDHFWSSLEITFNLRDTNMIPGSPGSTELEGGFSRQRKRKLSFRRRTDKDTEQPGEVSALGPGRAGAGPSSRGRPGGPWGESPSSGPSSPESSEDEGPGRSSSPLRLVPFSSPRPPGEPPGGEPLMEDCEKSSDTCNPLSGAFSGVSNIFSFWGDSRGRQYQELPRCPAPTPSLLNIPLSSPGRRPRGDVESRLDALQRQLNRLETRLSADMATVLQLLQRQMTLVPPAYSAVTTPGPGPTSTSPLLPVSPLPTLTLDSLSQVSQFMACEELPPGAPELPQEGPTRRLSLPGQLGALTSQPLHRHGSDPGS
row,SMILES,"hERG current change (%, negative = inhibition) at 10uM"
1,CCC(=O)N(Cc1ccco1)Cc1cc2cccc(C)c2n2nnnc12,23%
2,COc1ccccc1Cn1c(=S)[nH]c2cc(C(=O)N3CCN(C)CC3)ccc2c1=O,-14.4%
3,COc1ccccc1C(=O)NC(CCSC)C(=O)OC(C)C(=O)NC1CC1 (stereo not shown),14.6%
4,COc1ccccc1-n1cc2ccc([N+](=O)[O-])cc2n1,8.8%
5,CCSc1ccc(C(=O)Nc2ccc(Br)cn2)cc1[N+](=O)[O-],-1.01%
6,Cc1ccc(OCC(=O)N/N=C\c2ccc(C)o2)c(C)c1,15.5%
7,COc1ccc(N2C(=O)CC(Sc3n[nH]c(-c4cccc(C)c4)n3)C2=O)cc1 (stereo not shown),-6.65%
8,COc1ccc(CNc2ccc3c(c2)nc(C)n3C)cc1OC,-17.1%
9,CN(CC(=O)Nc1ccc(F)c(F)c1F)C(=O)C1CSC2(C)CCC(=O)N12 (stereo not shown),-5.92%
10,CC(=O)Oc1cccc(C(=O)Nc2ccccc2C(=O)N2CCCC2)c1,28.4%
11,CCS(=O)(=O)N1CCN(c2c(Cl)cccc2[N+](=O)[O-])CC1,-15.3%
12,COc1ccc(NC(=O)COc2ccccc2C)cc1S(=O)(=O)N1CCCCC1,-0.099%
13,Cc1nc2cc(C(=O)N3CCC4(CC3)OCCO4)ccc2n1-c1cccc(F)c1,-7.21%
14,CCCC(=O)Nc1cc(C)c(NC(=O)c2ccncc2)cn1,-16.5%
15,CN(C)c1ccc(C(CNC(=O)COc2ccc(Cl)cc2)N2CCCC2)cc1 (stereo not shown),-46.4%
16,CCOC(=O)C(=O)Nc1cc([N+](=O)[O-])ccc1C,3.65%
17,Cc1ccc(NC(=O)N2CCCCCC2)c(C)c1,9.88%
18,CN(C)S(=O)(=O)c1ccc(C(=O)NNc2nc(-c3ccccc3)c3cc(Br)ccc3n2)cc1,9.74%
19,CCOc1ccc(CNC(=O)c2ccccc2NC(=O)C2=CSCCO2)cc1,-21.5%
20,Cc1ccc(OCCOC(=O)c2nc3nccc(C)n3n2)cc1,-18.4%
21,C/C(=N\NC(=O)c1cc(C)nc2ccccc12)c1ccncc1,9.57%
22,COc1cc(CN/C(C)=C(\C#N)C(N)=O)cc(OC)c1OC,19.9%

row,SMILES,"hERG current change (%, negative = inhibition) at 10uM"
1,COC(=O)c1c(NC(=O)C2CC2)sc2c1CCCC2,8.92%
2,COc1cccc(NC(=O)CN2CCCCCC2)c1.Cl,11.6%
3,O=C(c1ccncc1)N(c1ccc2oc3c(c2c1)CCCC3)S(=O)(=O)c1ccc(F)cc1,13.6%
4,O=C1CN(c2ccc(F)cc2)C(=S)N1c1ccccc1,17.6%
5,O=C(Nc1ccccc1)Nc1ccc2c(c1)CCC2,29.8%
6,CCO[C@@H]1OC(C(=O)NCc2nc3ccccc3[nH]2)=C[C@H](C2CC2)[C@H]1CCCO,-17.6%
7,COC(=O)c1ccc(C2/C(=C(\O)c3ccc4c(c3)OCCO4)C(=O)C(=O)N2CCCN(C)C)cc1 (stereo not shown),-55.9%
8,CCCCCC(=O)N/N=C/c1cccs1,14.1%
9,CCSc1n[nH]c(=S)s1,29.4%
10,Cc1ccccc1C(=O)NC(CC(C)C)C(=O)Nc1ccc(F)c([N+](=O)[O-])c1 (stereo not shown),5.46%
11,COc1ccc(/C=N/NC(=O)/C(=C/c2ccccc2)CCO)cc1,7.76%
12,CCOC(=O)C1SC2(C(F)F)CC1(O)c1c(c(OC)c3occc3c1OC)O2 (stereo not shown),-9%
13,Cc1ccc(NC(=O)C(=O)NCc2ccco2)c(C)c1,20%
14,Cc1nc2ccccc2n1S(=O)(=O)N(C)C,21.7%
15,CCn1c(/C(C#N)=C(\O)CCc2ccccc2)nc2ccccc21,8.24%
16,Cn1cc(/C=C/c2cc[n+](C)cc2)c2cc(Cl)ccc21.[I-],-47.9%
17,O=C(OCC(=O)N1CCN(C(=O)c2ccco2)CC1)c1ccccc1C(=O)c1ccc(Cl)cc1,-64.8%
18,Fc1ccc(-c2nnn(Cc3ccccc3Cl)n2)cc1,-4.1%
19,Cc1csc(NC(=O)c2cccs2)n1,-1.76%
20,CCOc1ccccc1/C=N\Nc1cnn(Cc2ccccc2)c(=O)c1Cl,11%
21,Cn1cc(P(=S)(N2CCOCC2)N2CCOCC2)cc1P(=O)(N1CCOCC1)N1CCOCC1,7.36%
22,CNC(=O)c1c(NC(=O)c2ccc(S(=O)(=O)N3CC(C)OC(C)C3)cc2)sc2c1CCN(C(C)C)C2 (stereo not shown),-26.9%

row,SMILES,"hERG current change (%, negative = inhibition) at 10uM"
1,CCCCC1(C)OC(=O)C(=Cc2ccc(N(C)C)cc2)C(=O)O1 (stereo not shown),6.34%
2,COCCN(C(=O)CNC(=O)c1ccco1)C(C(=O)NC1CCCC1)c1ccccc1 (stereo not shown),-6.83%
3,O=C(COc1ccc(S(=O)(=O)NC2CCCCC2)cc1)Nc1ccc2c(c1)OCCO2,-0.462%
4,CC1CCCCC1N=C1NC(C)(C)CS1 (stereo not shown),21.8%
5,CCOC(=O)C1=C(CSc2nc3c(cc2C#N)CN(C)CC3)OC(N)=C(C#N)C1c1ccc(Cl)cc1 (stereo not shown),-2.47%
6,Cc1ccc(Cl)c(OCCCN(C)Cc2ccccc2)c1.O=C(O)C(=O)O,-30.6%
7,O=C(c1ccccc1)c1ccc(Cn2cc(CCCO)nn2)cc1,-10.6%
8,CCCCCOC(=O)Nc1nnc(CCC)s1,-16.7%
9,COCCCNC(=O)CNC(=O)c1nn(-c2ccc(OC)c(Cl)c2)c(=O)c2ccccc12,8.9%
10,COc1ccc(C(C)(C)C)cc1NC(=O)c1ccc2ncsc2c1,0.556%
11,O=C(O)CN1C(=O)/C(=C\c2cccc(OCc3ccccc3F)c2)SC1=S,5.41%
12,Cc1ccc(CN(Cc2ccccc2)C(=S)Nc2ccccc2C)o1,36.2%
13,OCC[C@H]1C[C@H](O)[C@@H](O)[C@@]2(Cc3ccccc3CCO2)O1,1.27%
14,Fc1ccc(OCc2nn3c(Cn4nnc5ccccc54)nnc3s2)cc1,-2.88%
15,C/C(=N\Nc1ccccc1C)c1cccnc1.Cl,12.2%
16,CCCCNC(=O)COn1nnc2ccc(S(=O)(=O)N3CCOCC3)cc21,-1.28%
17,O=c1/c(=C/c2ccco2)sc2n1CN(c1ccccc1)CN=2,5.55%
18,COc1cc(CNc2cccc3[nH]c(C(F)(F)F)nc23)cc(OC)c1.Cl,6.84%
19,COc1ccc2nc(N3CCC(O)CC3)c(C#N)cc2c1,4.39%
20,CC(=O)Oc1ccccc1N(C(C)=O)S(=O)(=O)c1cccc([N+](=O)[O-])c1,6.28%
21,CN1CCN(C(=O)C2=C[C@@H](c3ccc(C(F)(F)F)cc3)C[C@@H](OCc3ccc(CO)cc3)O2)CC1,-52.6%
22,O=C(NCc1n[nH]c(=S)n1-c1cccc(Cl)c1)c1cccs1,9.27%

row,SMILES,"hERG current change (%, negative = inhibition) at 10uM"
1,CS(=O)(=O)N(Cc1ccc(Cl)cc1)c1ccc(C(=O)NCCSc2ccccn2)cc1,-30.5%
2,O=C(CNC(=S)N(Cc1ccccc1)Cc1cccnc1)NC1CCCC1,-9.37%
3,CN(CC(=O)Nc1cccc(F)c1)C(=O)C1CC(=O)N(CCc2ccccc2)C1 (stereo not shown),-4.77%
4,COc1ccccc1-c1noc(CCC(=O)Nc2cccc(C(F)(F)F)c2)n1,-25.1%
5,CCC1CCCCN1CCCNC(=O)CCCOc1cc(=O)n(C)c2ccccc12 (stereo not shown),-6.83%
6,Br.Cc1nc(C)c(-c2csc(Nc3ccc(N)cc3)n2)s1,-0.808%
7,CS(=O)(=O)Nc1ccccc1C(=O)NCCSc1ccc(Cl)cc1,2.62%
8,O=C(NC1CCN(Cc2ccc(Cl)c(Cl)c2)CC1)c1ccccc1,-18.3%
9,N/N=C(/Cc1nc2ccccc2[nH]1)c1ccc([N+](=O)[O-])cc1,-41.3%
10,COCc1[nH][nH]c(=O)c1C=Nc1ccccc1,12.9%
11,CCOc1ccc(N2CC(C(=O)Nc3cccnc3)CC2=O)cc1 (stereo not shown),-8.23%
12,CCCCCn1c(CNC(C)=O)nc2ccccc21,0.766%
13,Cc1ccc(CN2C(=O)C(C)Nc3ncnc(N4CCN(c5ccccn5)CC4)c32)cc1.O=C(O)C(F)(F)F (stereo not shown),-56.1%
14,O=C(CSc1nnc(-c2ccco2)n1Cc1ccco1)NCc1cccs1,-33.1%
15,COc1ccc(NC(=O)NCc2ccco2)c(OC)c1,15.2%
16,N#Cc1c2n(c3c(=O)n(Cc4ccccc4)cnc13)CCCC2,-39.4%
17,CCOc1ccc(-n2c(Cc3cc(=O)[nH]c(=O)[nH]3)nnc2SCC)cc1,-0.0826%
18,CN(Cc1ccccc1)c1cc(Cl)nc(N)n1,-1.61%
19,O=[N+]([O-])c1ccc2nc(-c3ccccc3)cc(-c3ccccc3)c2c1,8.85%
20,CN(C)S(=O)(=O)c1ccc(C(=O)Nc2nnc(-c3ccco3)o2)cc1,12.4%
21,CCOC(=O)CC(=O)CSc1nc2c(sc(=S)n2-c2ccc(OCC)cc2)c(=O)[nH]1,-3.5%
22,CCN(CC(=O)Nc1ccc2c(c1)OCCO2)CC(=O)Nc1cc(C)on1,14.1%
